Results published in ChEMBL document CHEMBL4888484, “Replenishing the malaria drug discovery pipeline: Screening and hit evaluation of the MMV Hit Generation Library 1 (HGL1) against asexual blood stage Plasmodium falciparum ,using a nano luciferase reporter read-out” (2022).
About 540 (0.36%) of roughly 150,000 compounds showed an effect of 50% or more. The list shows a part of the results.

Test system: Plasmodium falciparum
Experiment: Primary screen in NF54 nanoGlo assay, in single point, at 2uM, 72h; a lower Z score goes with more inhibition
Type: functional, Erythrocyte
Conditions: timepoint 72 hour

Row | SMILES | % Inhibition | Z score
1 | CC(C)(C)c1ncc2c(n1)CCN([C@@H](C(=O)O)c1ccsc1)C2 | -4% | 0.48
2 | CC1=C(C(=O)N[C@@H](C)CC(=O)NC(C)C)CCCO1 | -2% | 0.31
3 | Cc1c(CN(C)C(=O)C2CCOCC2)[nH]c2ccccc12 | -14% | 1.92
4 | CC(C)OCCN1CCN(C(=O)Nc2ccc(C(F)(F)F)nc2)CC1 | -23% | 3.06
5 | O=C(Cc1ccc(-c2ccccc2)cc1)NC(C1CC1)C1CC1 | 0% | 0.04
6 | COc1ccc(S(=O)(=O)N2CCC(n3nnc4ccccc4c3=O)CC2)cc1 | -18% | 2.39
7 | COC[C@H]1CCCN1[C@@H]1[C@H](O)[C@H](CO)O[C@@H]1CNS(=O)(=O)c1ccc(OC)cc1 | -15% | 1.92
8 | CCO[C@@H](CNC(=O)c1c[nH]nc1-c1ccsc1)c1ccccc1 | -8% | 1.05
9 | CCCNc1ncc(CN2CCC(OCc3ccccn3)CC2)cn1 | -14% | 2.42
10 | O=C1CN(C(=O)c2cccc(NC(=O)CCn3ccc4ccc(Cl)cc43)c2)CCN1 | -18% | 2.28
11 | C[C@@H](C(=O)N(C)c1ccnn1C)c1ccc(Cl)s1 | -15% | 2.18
12 | CC[C@@H](CO)NC(=O)C(=O)Nc1ccc(OC)cc1OC | -15% | 2.39
13 | O=C(Cc1ccc(Cl)cc1)N1CCC(c2nc3ccccc3o2)CC1 | -17% | 1.53
14 | FC(F)COC1CN(Cc2cnc3ccc(Br)cn23)C1 | -16% | 2.3
15 | CCNC(=O)[C@@H]1C[C@@H](N)CN1C(=O)c1scc2c1CCCC2 | -2% | 0.32
16 | Cc1sc(C=Cc2cncc(Br)c2)nc1C(=O)O | -15% | 2.34
17 | CC1CCC(C(N)=O)CN1CC(=O)N1CCC(Cc2ccccc2)CC1 (stereo not given) | -1% | 0.18
18 | CO[C@@H](C)C(=O)Nc1cnccc1CO | 6% | -0.63
19 | Cc1ccc(NC(=O)CN(CC2CCCO2)CC2CCCO2)c(Cl)c1 (stereo not given) | -13% | 2.35
20 | CC(F)(F)c1ccccc1NC(=O)N1CCC2CCC(C1)S2(=O)=O (stereo not given) | -3% | 0.56
21 | Cc1cccc(CN2C(=O)c3ccc(-c4ccccc4)n3C[C@@]2(C)C(=O)NC2CCCC2)c1 | 6% | -1.15
22 | C[C@@](O)(C(=O)NCc1c(F)cccc1OC(F)F)C1CCOCC1 | -3% | 0.37

Row | SMILES | % Inhibition | Z score
23 | COc1cccn(CC(=O)N(C)Cc2cc(C)nn2C)c1=O | 1% | -0.14
24 | Cn1ncn(CC(=O)c2cccc(Cl)c2Cl)c1=O | 32% | -4.63
25 | CC(=O)N[C@@H]1CN(Cc2nccn2Cc2ccccc2)C[C@H]1c1nccn1C | 30% | -1.12
26 | CN(C)CCNC(=O)NCCc1ccc(F)c(F)c1 | 11% | -2.15
27 | Cc1ccc(-c2nc(=O)n(CC(=O)N3CCOCC3)c3sc(C)nc23)cc1 | -22% | 2.53
28 | CCOc1ncccc1NC(=O)N(C)C1CC1 | -5% | 0.68
29 | CCNC(=O)N(C)c1cccc(NC(=O)N(C)CC2=CCCOC2)c1 | 2% | -0.2
30 | COc1cccc(CCNc2nccn3nnnc23)n1 | 15% | -1.74
31 | O=C(CCc1ccccc1)N[C@@H](c1ccccc1)c1ccc2c3c(cccc13)CC2 | 38% | -4.27
32 | Cc1ccccc1-c1cc(C(=O)O)cc(S(=O)(=O)N2CCOCC2)c1 | 3% | -0.57
33 | CN(C)CCCCN(C)S(=O)(=O)CC1CCCCC1 | 6% | -0.77
34 | CC(C)[C@H](N)C(=O)NC[C@H]1CC[C@H](C(=O)N[C@H](C(=O)O)C(C)C)CC1 | -14% | 1.57
35 | COc1cnccc1C(C)NC(=O)NC1C2CCOC2C12CCC2 (stereo not given) | -14% | 2.25
36 | CCc1nc(-c2cc(S(=O)(=O)Nc3cc(C)ccc3F)c(C)s2)cs1 | -3% | 0.36
37 | N#Cc1cccnc1NC[C@@H](c1ccccc1Cl)N1CCOCC1 | -12% | 1.04
38 | Cc1ccc2snc(C(=O)N[C@H](c3cnn(C)c3)C(C)C)c2c1 | 20% | -3.7
39 | Cc1nc(-c2nnc[nH]2)sc1C(=O)NC1CC1c1ccccc1Cl (stereo not given) | -2% | 0.24
40 | CC(C)(C)C(=O)N1CCC(Cn2nnc(-c3ccco3)n2)CC1 | 0% | 0.02
41 | CCCN(C)C(=O)[C@H](C1CCCC1)N1CCN(C(=O)CC(C)(C)C)CC1 | -5% | 1.08
42 | CCC(NC(=O)C(c1ccncc1)C1CCCC1)C(O)C(C)C (stereo not given) | 17% | -1.97
43 | Cc1cc(C)nc(N2CCN(c3cc(=O)[nH]c(=O)[nH]3)CC2)n1 | -1% | 0.1
44 | O=C(CN1CCN(CC2CC2)[C@@H](CCO)C1)NC1CCCCCCC1 | -10% | 1.23

Row | SMILES | % Inhibition | Z score
45 | Cc1ccc(CN(CCC#N)CCC#N)cc1C | 0% | -0.04
46 | COc1cc(-c2c(-c3ccccc3)ncn2[C@@H](C)c2cnn(C)c2)ccc1F | -4% | 0.8
47 | c1cn2cnnc2c(N2CCN(Cc3ccc4c(c3)CCO4)CC2)n1 | -5% | 0.67
48 | CCCn1nc(C(=O)N2CCCN(C[C@H]3CCCO3)CC2)ccc1=O | -13% | 1.91
49 | CCOC(=O)[C@@H](NCc1ccc(OC)cc1)C(C)C | 1% | -0.16
50 | CCn1c(=O)c(-c2noc(C(=O)NCc3ccc4c(c3)OCO4)n2)nn(-c2ccccc2)c1=O | 2% | -0.37
51 | Nc1snnc1-c1nc(C2CC2)cs1 | 28% | -3.13
52 | CS(=O)(=O)CCC(=O)N(Cc1cnn(-c2ccccc2)c1)C1CC1 | 2% | -0.48
53 | CCN(CC)C(=O)N1CCN(Cc2csc(NC(C)=O)n2)CC1 | -5% | 0.95
54 | Cn1ccc([C@H](NC(=O)C2CCOCC2)c2ccc(Cl)cc2)n1 | -10% | 1.02
55 | Cc1cccc(Cn2nc(CC(N)=O)nc2-c2cc(C)oc2C)c1 | 4% | -0.77
56 | CN(C(=O)OC(C)(C)C)[C@H]1CCCN(C(=O)C(C)(C)C)C1 | 11% | -1.15
57 | CCCNC(=O)Cn1ccc(Br)cc1=O | -7% | 1.11
58 | CN1CCN(CCCNc2ncnc3onc(-c4cc(F)cc(F)c4)c23)CC1 | 6% | -1.07
59 | CCOC(=O)Nc1scnc1C(=O)NCCn1cc(C)cn1 | -8% | 1.34
60 | Cc1c([C@@H](NC(=O)N2CCNC(=O)CC2)C(C)C)oc2ccccc12 | -13% | 2.48
61 | CC1(C)CN(C(=O)CCC2CC2)CC[C@]1(C)O | -10% | 0.87
62 | N#CC[C@H]1CCCN(C(=O)c2cc3c(o2)CCCC3)C1 | -9% | 1.23
63 | N#Cc1ccc(C(=O)NCCc2csc(-c3ccccc3)n2)nc1 | 31% | -3.52
64 | Cc1cnc(CCNC(=O)NC(C)(C)C)n1C1CCCCCCC1 | 4% | -0.58
65 | O=C(OCc1nnnn1-c1ccccc1)c1cccnc1Nc1ccccc1F | -9% | 1.28
66 | O=C(Nc1cnc(-n2cccn2)nc1)c1cccc2ccccc12 | -10% | 1.63

Row | SMILES | % Inhibition | Z score
67 | Cc1c(C(=O)Nc2cccc(-c3nnco3)c2)cnn1C | -12% | 1.37
68 | Cc1ccc(CN2CCCn3nc(C(=O)NC4CCN(Cc5ccccc5)CC4)cc3C2=O)cc1 | -9% | 1.1
69 | CCc1nc2c(-c3ccncc3)nsc2c(=O)n1CC(=O)Nc1cccc(Cl)c1 | -16% | 2.51
70 | Cn1cc(CN(Cc2ccc(Cl)cc2)Cc2ccc3cn[nH]c3c2)cn1 | -17% | 1.66
71 | COC(=O)c1ccc(NCCOc2c(C)cccc2C)nn1 | -5% | 0.67
72 | Nc1nc2ccc(S(=O)(=O)N3CCCC3)cc2s1 | -5% | 0.52
73 | O=C(c1ccccc1)N1CCc2nc(N3CCc4ccccc4C3)nc(Oc3cccc(F)c3)c2C1 | -11% | 1.38
74 | CC(=O)c1ccc(F)c(-c2ccc(C(=O)N[C@H]3CCCNC3=O)cc2)c1 | 2% | -0.36
75 | Cc1cccc(-c2noc([C@@H]3CCCN3S(=O)(=O)c3ccc(C)c(C)c3)n2)c1 | -3% | 0.5
76 | O=C(Nc1cc2c(nn1)CCC2)N1CCC[C@H](CCO)CC1 | -19% | 3.6
77 | O=C(Cn1cnc(C2CC2)n1)NCC1CC1 | 0% | -0.02
78 | O=C(Nc1ccccc1F)c1nc(-c2cn(-c3ccc(F)cc3)nn2)no1 | -10% | 2.02
79 | CN(C)C(=O)c1cnc(N(C)C)nc1[C@H]1CCN(C(=O)C2CCC2)C1 | -20% | 2.39
80 | C[C@H]1CN(c2ccncc2F)C[C@]1(O)C1CC1 | -13% | 2.56
81 | CC(C)(O)Cn1nc(COc2ccc(F)cc2)nc1-c1cc(C#N)c[nH]1 | 1% | -0.19
82 | Cc1cc(S(=O)(=O)N[C@@]2(CC(=O)O)CCCOC2)c(C)s1 | -3% | 0.58
83 | Cc1cc(C)cc(CN2CCN(Cc3cccnc3N)CC2=O)c1 | -4% | 0.6
84 | COC(=O)c1c(NC(=O)C2CCCO2)c2cc(NC(C)CCn3cccn3)cnc2n1CCc1ccccc1 (stereo not given) | 4% | -0.56
85 | CCc1ccc(S(=O)(=O)N2CCC3(CC2)N=C(c2ccccc2)C(=O)N3)cc1 | -3% | 0.51
